From the supplement of paper PMC10369915
The list shows a part of the results. Cut-off read from the data, not from the text of the source: active = 3.2 or more and inactive = the rest. Only a few entries rise above the background.

Each binder was assayed against SHP2 C-SH2 domain E139D (assay: enrichment score (SH2-bound / input frequency) (ratio); bacterial display of known human phosphotyrosine sites (pTyr-Var adds point mutants) read by sequencing; higher = stronger binding; tyrosines were phosphorylated by kinases first). Conditions: peptide library: pTyr-Var.
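Note: displayed peptides selected on beads carrying the immobilized SH2 domain, with library peptides lacking any tyrosine serving as negative controls.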

Enrichment score, inactive:
GANFEYIIAEK [ECHS1_Y35] 0.865
EKLQKYFRQNP [EHHADH_Y682_YF] 1.09
AFGTVYKGLWI [EGFR_Y727] 1.17
MDDDQYALLTA [EFCAB6_Y675_T680A] 0.635
MVTSGYKAKTI [EFR3A_Y447] 0.731
MVTSGYKAKMI [EFR3A_Y447_T451M] 0.712
KGNMYYENSYA [EGFR_Y113_R108K] 1.29
ISTAGYSFPEL [EDAR_Y406_I408F] 0.934
EKLQKYYRQNP [EHHADH_Y682] 0.905
AEEKEYHAEGG [EGFR_Y869] 0.586
GIADDYDKKKL [EIF1_Y54] 0.508
RGNMFYENSFA [EGFR_Y113_YF] 1.43
IKGNMYFENSF [EGFR_Y112_R108K_YF] 1.02
KLQKYYRQNPD [EHHADH_Y683] 0.97
PPLMLYNPTTF [EGFR_Y270_YF] 1.1
KLQKFYRQNPD [EHHADH_Y683_YF] 0.801
KAEELYIGVTV [EFHC2_Y509] 0.676
PRLMLYNPTTF [EGFR_Y270_P266R_YF] 1.16

What follows are binders tested against SHP2 C-SH2 domain wild-type in the same assay as above. Conditions: peptide library: pTyr-Var.

Enrichment score, inactive:
GANFEYIIAEK [ECHS1_Y35] 0.63
EKLQKYFRQNP [EHHADH_Y682_YF] 0.916
AFGTVYKGLWI [EGFR_Y727] 1.1
MDDDQYALLTA [EFCAB6_Y675_T680A] 0.53
MVTSGYKAKTI [EFR3A_Y447] 0.509
MVTSGYKAKMI [EFR3A_Y447_T451M] 0.728
KGNMYYENSYA [EGFR_Y113_R108K] 1.18
ISTAGYSFPEL [EDAR_Y406_I408F] 0.886
EKLQKYYRQNP [EHHADH_Y682] 0.887
AEEKEYHAEGG [EGFR_Y869] 0.588
GIADDYDKKKL [EIF1_Y54] 0.493
RGNMFYENSFA [EGFR_Y113_YF] 1.17
IKGNMYFENSF [EGFR_Y112_R108K_YF] 0.916
KLQKYYRQNPD [EHHADH_Y683] 0.81
PPLMLYNPTTF [EGFR_Y270_YF] 0.927
KLQKFYRQNPD [EHHADH_Y683_YF] 0.715
KAEELYIGVTV [EFHC2_Y509] 1
PRLMLYNPTTF [EGFR_Y270_P266R_YF] 0.94

The binders below were run against SHP2 N-SH2 domain L43F in the same assay as above. Conditions: peptide library: pTyr-Var.

Enrichment score, inactive:
GANFEYIIAEK [ECHS1_Y35] 0.425
EKLQKYFRQNP [EHHADH_Y682_YF] 0.728
AFGTVYKGLWI [EGFR_Y727] 0.829
MDDDQYALLTA [EFCAB6_Y675_T680A] 0.752
MVTSGYKAKTI [EFR3A_Y447] 0.555
MVTSGYKAKMI [EFR3A_Y447_T451M] 0.547
KGNMYYENSYA [EGFR_Y113_R108K] 1.34
ISTAGYSFPEL [EDAR_Y406_I408F] 0.908
EKLQKYYRQNP [EHHADH_Y682] 1.08
AEEKEYHAEGG [EGFR_Y869] 0.582
GIADDYDKKKL [EIF1_Y54] 0.546
RGNMFYENSFA [EGFR_Y113_YF] 1.89
IKGNMYFENSF [EGFR_Y112_R108K_YF] 0.782
KLQKYYRQNPD [EHHADH_Y683] 0.712
PPLMLYNPTTF [EGFR_Y270_YF] 1.13
KLQKFYRQNPD [EHHADH_Y683_YF] 0.851
KAEELYIGVTV [EFHC2_Y509] 0.764
PRLMLYNPTTF [EGFR_Y270_P266R_YF] 1

The binders below were run against SHP2 N-SH2 domain T42A in the same assay as above. Conditions: peptide library: pTyr-Var.

Enrichment score, inactive:
GANFEYIIAEK [ECHS1_Y35] 0.566
EKLQKYFRQNP [EHHADH_Y682_YF] 0.965
AFGTVYKGLWI [EGFR_Y727] 1.97
MDDDQYALLTA [EFCAB6_Y675_T680A] 0.485
MVTSGYKAKTI [EFR3A_Y447] 0.514
MVTSGYKAKMI [EFR3A_Y447_T451M] 0.638
KGNMYYENSYA [EGFR_Y113_R108K] 1.22
ISTAGYSFPEL [EDAR_Y406_I408F] 1.07
EKLQKYYRQNP [EHHADH_Y682] 0.646
AEEKEYHAEGG [EGFR_Y869] 0.651
GIADDYDKKKL [EIF1_Y54] 0.638
RGNMFYENSFA [EGFR_Y113_YF] 1.47
IKGNMYFENSF [EGFR_Y112_R108K_YF] 0.987
KLQKYYRQNPD [EHHADH_Y683] 0.737
PPLMLYNPTTF [EGFR_Y270_YF] 0.965
KLQKFYRQNPD [EHHADH_Y683_YF] 0.663
KAEELYIGVTV [EFHC2_Y509] 0.719
PRLMLYNPTTF [EGFR_Y270_P266R_YF] 1.03

What follows are binders tested against SHP2 N-SH2 domain T52S in the same assay as above. Conditions: peptide library: pTyr-Var.

Enrichment score, inactive:
GANFEYIIAEK [ECHS1_Y35] 0.895
EKLQKYFRQNP [EHHADH_Y682_YF] 0.776
AFGTVYKGLWI [EGFR_Y727] 1.25
MDDDQYALLTA [EFCAB6_Y675_T680A] 0.682
MVTSGYKAKTI [EFR3A_Y447] 0.703
MVTSGYKAKMI [EFR3A_Y447_T451M] 0.565
KGNMYYENSYA [EGFR_Y113_R108K] 1.47
ISTAGYSFPEL [EDAR_Y406_I408F] 0.882
EKLQKYYRQNP [EHHADH_Y682] 0.703
AEEKEYHAEGG [EGFR_Y869] 0.599
GIADDYDKKKL [EIF1_Y54] 0.586
RGNMFYENSFA [EGFR_Y113_YF] 1.79
IKGNMYFENSF [EGFR_Y112_R108K_YF] 0.972
KLQKYYRQNPD [EHHADH_Y683] 0.803
PPLMLYNPTTF [EGFR_Y270_YF] 0.973
KLQKFYRQNPD [EHHADH_Y683_YF] 0.922
KAEELYIGVTV [EFHC2_Y509] 0.681
PRLMLYNPTTF [EGFR_Y270_P266R_YF] 1.33

Each binder was assayed against SHP2 N-SH2 domain wild-type in the same assay as above. Conditions: peptide library: pTyr-Var.

Enrichment score, inactive:
GANFEYIIAEK [ECHS1_Y35] 0.63
EKLQKYFRQNP [EHHADH_Y682_YF] 0.999
AFGTVYKGLWI [EGFR_Y727] 0.922
MDDDQYALLTA [EFCAB6_Y675_T680A] 0.801
MVTSGYKAKTI [EFR3A_Y447] 0.837
MVTSGYKAKMI [EFR3A_Y447_T451M] 0.698
KGNMYYENSYA [EGFR_Y113_R108K] 1.23
ISTAGYSFPEL [EDAR_Y406_I408F] 1.06
EKLQKYYRQNP [EHHADH_Y682] 0.968
AEEKEYHAEGG [EGFR_Y869] 0.672
GIADDYDKKKL [EIF1_Y54] 0.817
RGNMFYENSFA [EGFR_Y113_YF] 1.47
IKGNMYFENSF [EGFR_Y112_R108K_YF] 1.02
KLQKYYRQNPD [EHHADH_Y683] 0.857
PPLMLYNPTTF [EGFR_Y270_YF] 0.754
KLQKFYRQNPD [EHHADH_Y683_YF] 0.862
KAEELYIGVTV [EFHC2_Y509] 1.1
PRLMLYNPTTF [EGFR_Y270_P266R_YF] 1.37
